Read counts are not given, so values of variants with three or more changes are uncertain.
B1: OR4K15 (parent)
chain: GUUAACGGUCAUAGGCCAUGGAAACUAGGAGCACCAUUUCGCUGCCAGUGAAGAAAUGAACAAAGAAAAUCUGGGCCAGGCAGGCAUCAAAAGAAAUAGUCUUGCGCUCAACCAGAAAGUCUGUAAUCAUUUUAAGGGUA

Variants of: B1
Experiment: self-cleavage, relative activity (ratio to wild type); higher = more cleavage; in vitro, sequencing; the parent is a self-cleaving ribozyme

Question: Which self-cleavage does the source give for GUUAACGGUCAUAGGCCAUGGAAACUAGGAGCACCAUUUCGCUGCCAGUGAAGAAACGAACAAAGAAAAUAUGGGCCAGGCAGGCAUCAAAAGAAGUAGUCUUGCGCUCAACCAGAAAGUCUGUAAUCAUUUUAAGGGUA [U57C C71A A96G] here?
Answer: 0.15

Question: With GUUAACGGUCAUAGGCCAUGGAAACUAGGAGCACCAUUCCGCUGCCAGUGAAGAAAUGAACAGAGAAAAUCUGGGCCAGGCAGGCAUCAAAGGAAAUAGUCUUGCGCUCAACCAGAAAGUCUGUAAUCAUUUUGAGGGUA [U39C A63G A92G A134G] as the variant, how does the self-cleavage read?
Answer: 0.66

Question: For GUUAACGGUCAUAGGCCACGGAAACUAGGAGCACCAUUUCGCUGCCAGUGAGGAAAUGAACAAAGAAAAUCUGGGCCAGGCAGGCAUCAAAAGAAAAAGUCUUGCGCUCAACCAGUAAGUCUGUAAUCAUUUUGAGGGUA [U19C A52G U97A A116U A134G], which self-cleavage is on record?
Answer: 0.26

Question: For GUUAACGGUCGUAGGCCAUGGAACCUAGGAGCACCAUUUCGCCGCCAGUGAAGAAAUGAACAAAGAAAAUCUGGGCCAGGCAGGCAUCAAAAGAAAUAGUCUUGCGCUCUACCAGAAAGUCUGUAAUCAUUUUAAGGGUA [A11G A24C U43C A110U], which self-cleavage is on record?
Answer: 0.76

Question: For GUUAACGGUCAUAGGCCAUGGUAACUAGGAGCACCAUUUCGCUGCCUGUGAAGAAAUGAACAAAGAGAAUCUGGGCCUGGCAGGCAUCAAAAGAAAUAGUCUUGCGCUCAACCAGAAAGUCUGUAAUCAUUUUAAGGGUA [A22U A47U A67G A78U], which self-cleavage is on record?
Answer: 0.24

Question: For GUUAACGGUCAUUGGCCAAGGAAACUAGGAGCACCAUUUCGCUGCCAGUGAAGAAGUGAACAAAGAAAAUCUGGGCCAGGCUGGCAUCAAAAGAAAUAGUCUUGCGCUCAACCAGAAAGUCUGUAAUCAUCUUAAGGGUA [A13U U19A A56G A82U U131C], which self-cleavage is on record?
Answer: 0.29

Question: With GUUAACGGUCAUAGGCCACGGAAACUAGGAGCGCCAUUUCGCUGCCAGUGAAGAAAUGGACAAAGAAAAUCUGGGCCAGGCAGGCAUCAAAAGAAAUAGUCUUGCGCCCAACCAGAAAGUCUGUAAUCAUUUUAAGGGUA [U19C A33G A59G U108C] as the variant, how does the self-cleavage read?
Answer: 0.02

Question: With GUUAACGGUCAUAGGCCAUGGAAACUAGGAGCACCAUUUCGCUGCCAGUGAAGAAAUGAGCAAAGAAAAUCCGGGCCUGGCAGGCAUCAAAAGAAAUAGUCUUGCGCUCAACCUGAAAGUCUGUAAUCAUUUUAAGGGUA [A60G U72C A78U A114U] as the variant, how does the self-cleavage read?
Answer: 0.01

Question: With GUUAACGGUCAUAGGCCAUGGAAACUAGGAGCACCAUUUCGCUGCCAGUGAAGAAAUGAACAAAGAGAAUCUGAGCCAGGCAGGCUUCAAAAGAAAUAGUCUUGCGCUCAACCAGAAGGUCUGUAAUCAUUUUAAGGGUA [A67G G74A A86U A118G] as the variant, how does the self-cleavage read?
Answer: 0.07

Question: With GUUAACGGUCAUAGGCCAUGGAGACUAGGAGCACCAUUUCGCUGCCAGUGAAGCAAUGAACAAAGAAAAUCUGGGCCAGGCAGGCAUCAAAAGAAAUAGUCUUACGCUCAACCAGAAAGCCUGUAAUCAUUUUAAGGGUA [A23G A54C G104A U120C] as the variant, how does the self-cleavage read?
Answer: 0.01

Question: Which self-cleavage does the source give for GUUAACGGUCUUAGGCCAUGGAAACUAGGGGCACCAUUUCGCUGCCAGUGAAGAAAUGAACAAAGAAAAUCUGGGCCAGGCAGGCAUCAAAAGAAAUAGCCUUGCGCUCAACCAGAAAGUCUGUAAUCAUUUUAAGGGUA [A11U A30G U100C] here?
Answer: 1.1

Question: Which self-cleavage does the source give for GUUAACGGUCAUAGGCCAUGGAAACUAGGAGCACCAUUUCGCUGCCGGCGAAGAAAUGAACAAAGAAAAUCUGGGCCAGGCAGGCAUCAAAAGAAAUAGUCUUGCGCUCAACCAGAAAGUCUGUAAUCCUUUUAAGGGUA [A47G U49C A129C] here?
Answer: 0.42

Question: Which self-cleavage does the source give for GUCAACGGUCAUAGGCCAUGGAGACUAGGAGCACCAUUUCGCUGCCGGUGAAGAAAUGAACAAAGAAAAUCUGGGCCAGGCAGGCAUCAAAAGAAAUAGUCUUGCGCUCAACCAGAAAGUCUGUAAUCAUUUUAAGGGUA [U3C A23G A47G] here?
Answer: 0.71

Question: Which self-cleavage does the source give for GAUAACGGUCAUAGGCCAUGGAAACUAGGAGCACCAUUUCGCUGCCAGAGAAGAAAUGAACAAAGAAAAUCUGGGCCAGGCAGGCAUCAAAAGAGAUAGUCUUGCGCUCAACCAGAAAGUCUGUAAUCAUUUUAAGGGUA [U2A U49A A95G] here?
Answer: 0.63

Question: For GUUAACGUUCAUAGGCCAUGGAAACUAGGAGCACCAUCUCGCUGCCAGUGAAGAAAUGAACAAAGAAAAUCUGGGCCAGGCAGGCAUCAAAAGAAAUAGUCUUGCGCUCAACCAGAAGGUCUGUAAUCAUUUUAAGGGUA [G8U U38C A118G], which self-cleavage is on record?
Answer: 1.76

Question: For GUUAACGGUCAUAGGCCAUGGAAUCUAGGAGCACCAUUUCGCUGCCAGUGAAGAAAUGAACAAAGAAAAUCUGGGCCAGGCAGGCAUCAAAAGAAAUAGUCUUGCGCUCAACCGGAAAGUCUGUAGUCAUUUUAAGGGUA [A24U A114G A126G], which self-cleavage is on record?
Answer: 0.18

Question: For GUUAACGGACAUAGGCCAUGGGAACUAGGAGCACCAUUUCGCUGCCAGCGAAGAAAUGAACAAAGAAAAUCUGGGCCAGGCAGGCAUCAAAAGAAAUAGUCUUGCGCUCAACCAGAAAGUCUGUAAUCAUUUUAAGGGUA [U9A A22G U49C], which self-cleavage is on record?
Answer: 0.83

Question: Which self-cleavage does the source give for GUUAACGGUCAUAGGCCAUGGAAACUAGGAGCACCAUUACGCCGCCAGUGAAGAAAUGAACAAAGGAAAUCUGGGCCAGGCAGGCAUCAGAAGAAAUAGUCUUGCGCUCAACCAGAAAGUCUGUAAUCAUUUUAAGGGUA [U39A U43C A66G A90G] here?
Answer: 1.29

Question: With GUUAACGGUCAGAGGCCAUGGAAACUAGGGGCACCAUUUCGCUGCCAGCGAAGAAAUGAACAAAGAAAAUCUGGGCCAGGCAGGCAUCAGAAGAAAUAGUCUUGCGCCCAACCAGAAAGUCUGUAAUCAUUUUAAGGGUA [U12G A30G U49C A90G U108C] as the variant, how does the self-cleavage read?
Answer: 0.05

Question: Which self-cleavage does the source give for GUUAACGGUCAUAGGCCACGGAAACUAGGAGCACCAUUUCGCUGCCUGUGAAGAAAUGAACAAAGAUAAUCUGGGCCAGGCAGGCAUCGAAAGAAAUAGUCUUGCGCUCAACCAGAAAGUCUGUAAUCAUUUUAAGGGUA [U19C A47U A67U A89G] here?
Answer: 0.89

Question: For GUUAACGGUCAUAGGCCAUGGAAACUAGGAGCACCUUUUCGCUGCCAGUGAAGAAAUGAGCAAAGAAAACCUGGGCCUGGCAGGCAUCAAAAGAAAUAGUCUUGCGCUCAACCAGAAAGUCUGUAAUUAUUUUAAGGGUA [A36U A60G U70C A78U C128U], which self-cleavage is on record?
Answer: 0.12

Source: the RNAGym collection of RNA variant scans (doi:10.7554/elife.90254)
